# Source: the RNAGym collection of RNA variant scans (doi:10.7554/elife.90254)
# The source gives no read counts; variants with many changes may rest on few reads.
# B1: OR4K15 (parent)
# chain: GUUAACGGUCAUAGGCCAUGGAAACUAGGAGCACCAUUUCGCUGCCAGUGAAGAAAUGAACAAAGAAAAUCUGGGCCAGGCAGGCAUCAAAAGAAAUAGUCUUGCGCUCAACCAGAAAGUCUGUAAUCAUUUUAAGGGUA
# Variants of: B1
# Assay: self-cleavage, relative activity (ratio to wild type); higher = more cleavage; in vitro, sequencing; the parent is a self-cleaving ribozyme
row,Variant,self-cleavage
1,GUUAACGGUCAUAGGCCAUGGAAACUAGGAGCACCAGUUCGCUGCCAGCGAAGAAAUGAACAAAGAAAAUCCGGGCCAGGCAGGCAUCAAAAGAAAUAGUCUUGCGCUCAACCAGAAAGUCUGUAAUCAUUUUAAGGGUA [U37G U49C U72C],0.34
2,GUUAACGGUCAUAGGCCAUGGAAACUAGGAGCACCACUUCGCUGCCAGUGAAGAAAAGAACAAAGAAAAUCUGGGCCAGGCGGGCAACAAAAGAAAUAGUCUUGCGCUCAACCAGAAAGUCCGUAAUCAUUUUAAGGGUG [U37C U57A A82G U87A U122C A140G],0.12
3,GUUAACGGUCAUAGGCCAUGGAAACUAGGAGCACCACUUCGCUGCCAGUGAAGAAAUGAACAAAGAAAACCUGGGCCAGGCAGGCAUCAAAAUAAAUAGUCUUGCGCUCAACCAGAAAGUCUGUAAUCAUUUUAAGGGUA [U37C U70C G93U],1.04
4,GUUAACGGUCAUAGGCCAUGGAAACUAGGAGCACCACUUCGCUGCCAGUGAAGAAAUGAACAAAGAAAAUCUGGGCCAGGCAGGCAUCAAAAGAAAUAGUCUUGCGCUCAACCAGAAAGUCUGUAAUCAUCUUAAGGGCA [U37C U131C U139C],1.66
5,GUUAACGGUCAUAGGCCAUGGAAACUAGGAGCACCACUUCGCUGCCAGUGAAGAAAUGAACAAAGAAAAUCUGGGCCAGGCAGGCAUCAAAAGAAAUAGCCUUGCGCUCAACCAGAAGGUCUGUAAUCAUUUUAAGGGUA [U37C U100C A118G],2.39
6,GUUAACGGUCAUAGGCCAUGGAAACUAGGAGCACCAUAUCGCUGCCAGUGUAGAAAUGAACAAAGAAAAUCUGGGCCGGGCAGGCAUCAAAAGAAAUAGUCUUGCGCCCAACCAGAAAGUCUGUAAUCAUUUUAAGGGUA [U38A A51U A78G U108C],0.01
7,GUUAACGGUCAUAGGCCAUGGAAACUAGGAGCACCACUUCGCUGCCAGCGAAGAAAUGAACAAAGAAAAUCUGGGCCCGGCAGGCAUCAAAAGGAAUAGCCUUGCGCUCAACCAGAAAGUCUGUAAUCAUUUUAAGGGUA [U37C U49C A78C A94G U100C],0.42
8,GUUAACGGUCAUAGGCCAUGGAAACUAGGAGCACCACUUCGCUGCCAGCGAAGAAAUGAACAAAGAAAAUCUGGGCCAGGCAGGCAUCACAAGAAAUAGUCUUGCGCUCAACCAGAAAGUCUGUAAUCAUUUUAAGGGUA [U37C U49C A90C],1.6
9,GUUAACGGUCAUAGGCCAUGGAAACUAGGAGCACCACUUCGCUGCCAGUGAAGAAACGAACAAAGAAAAUCUGGGCCAGGCAGGCAUCAAAAGAAAUAGUCUCGCGCUCAACCAGAAAGUCUGUAAUCAUUUUAAGGGUA [U37C U57C U103C],0.15
10,GUUAACGGUCAUAGGCCAUGGAAACUAGGAGCACCAUAUCGCUGCCAGUGAGGAAAUGAACAAAGAAAAUCUGGGCCAGGCAGGCAUCAAAAGAAAUAGUCUUGCGCUUAACCAGAAAGCCUGUAAUCAUUUUAAGGGUA [U38A A52G C109U U120C],0.16
11,GUUAACGGUCAUAGGCCAUGGAAACUAGGAGCACCACUUCGCUGCCAGUGAAGAAAUGAACAAAGAAAAUCAGGGCCAGGCAGGCAUCAAAAUAAAUAGUCUUGCGCUCAACCAGGAGGUCUGUAAUCACUUUAAGGGCG [U37C U72A G93U A116G A118G U130C U139C A140G],0.01
12,GUUAACGGUCAUAGGCCAUGGAAACUAGGAGCACCACUUCGCUGCCAGGGAAGAAAUGAACAAAGAAAAUCUGGGCCAGGCAGGCAUCAAAAGAAAUAGUCUUGCGCUCAACCAGAAAGUCUGCAAUCAUUUUAAGGGUA [U37C U49G U124C],0.41
13,GUUAACGGUCAUAGGCCAUGGAAACUAGGAGCACCAUAUCGCUGCCAGUGUAGAAAUGAACAAAGAAGAUCUGGGCCAGGCAGGCAUCAAAAGAAGUAGUCUUGCGCUCAACCAGAAAGUCUGUAAUCAUUUUAAGGGUA [U38A A51U A68G A96G],1.58
14,GUUAACGGUCAUAGGCCAUGGAAACUAGGAGCACCACUUCGCUGCCAGUGAAGAAAUGAACAAAGAAAAUCUGGGCCAGGCAGGCAUCAAAAGAAAUAGCCUUGCGCCCAACCAGAAAGUCUGUAAUCGUUUUAAGGGUA [U37C U100C U108C A129G],0
15,GUUAACGGUCAUAGGCCAUGGAAACUAGGAGCACCACUUCGCUGCCAGUGAAGAAAUGAACAAAGAAAAUCUGGGCCAGGCAGGCACCAGAAGAAAUAGUCUUGCGCUCAACCAGAAAGUCUGUAAUCAUUUUAAGGGUA [U37C U87C A90G],0.25
16,GUUAACGGUCAUAGGCCAUGGAAACUAGGAGCACCACUUCGCUGCCAGUGAAGAAAUGAACAAAGAAAAUCUGGGCCAGGCAGGCAUCAAAAGAAAUAGUCUUGCGCCCAACCAGAAAGUCUGUGAUCAUUUUAAGGGUA [U37C U108C A125G],0.01
17,GUUAACGGUCAUAGGCCAUGGAAACUAGGAGCACCACUUCGCUGCCAGUGAAGAAAUGAACAAAGAAAAUCCGGGCCAGGCAGGCAUCAAAAGAAAUAGUCUUGCGCUCAACCAGAUAGUCUGUAAUCAUUUUAAGGGUA [U37C U72C A117U],0.3
18,GUUAACGGUCAUAGGCCAUGGAAACUAGGAGCACCACUUCGCUGCCAGUGAAGAAAUGAACAAAGAAAAUCUGGGCCAGGCAGGCAUCAAAAGAAAUAGUCUAGCGCUCAACCAGAAAGUCUGUAAUCACUAUAAGGGUA [U37C U103A U130C U132A],0.16
19,GUUAACGGUCAUAGGCCAUGGAAACUAGGAGCACCACUUCGCUGCCAGUGAAGAAACGAACAAAGAAAGUCUGGGCCAGGCAGGCAUCAAAAGAAAUAGUCUUGCGCUCAACCAGAAAGUCUGUAAUCAUUUUAAGGGUA [U37C U57C A69G],1.02
20,GUUAACGGUCAUAGGCCAUGGAAACUAGGAGCACCAGUUCGCUGCCAGUGAAGAAAUGAACAAAGAAAAUCUGGGCCAGGCAGGCAUCAAAAGAGGUAGUCUUGCGCUCAACCAGAAAGACUGUAAUCAUUUUAAGGGUA [U37G A95G A96G U120A],1.71
21,GUUAACGGUCAUAGGCCAUGGAAACUAGGAGCACCAGUUCGCUGCCAGUGAAGAAAUGAUCAAAGAAAAUCUGGGCCAGGCAGGCAUCAAAAGAAAUAGUCUUGCGCUCAUCCAGAAAGUCAGUAAUCAUUUUAAGGGUA [U37G A60U A111U U122A],0.01

row,Variant,self-cleavage
1,GUUAACGGUCAUAGGCCAUGGAAACUAGGAGCACCACUUCGCUGCCAGUGAAGAAAUGAACAAAGAAAAUCUGGGCCAGGCAGGCAUCAAAAGAAAUAGUCUCGCGCUCAACCGGAAAGUCUGUAAUCAUUUUGGGGGUA [U37C U103C A114G A134G A135G],0.12
2,GUUAACGGUCAUAGGCCAUGGAAACUAGGAGCACCACUUCGCUGCCAGCGAAGAAAUGAACAAAGAAAAUCUGGGCCAGGCAGGCACCAAAAGAAAUAGUCUUGCGCUCAACCAGAAAGUCUGUAAUCAUUUUAAGGGUA [U37C U49C U87C],2.08
3,GUUAACGGUCAUAGGCCAUGGAAACUAGGAGCACCACUUCGCUGCCAGUGAAGAAAUGAACAAAGAAAAUCUGGGCCAGGCAGGCAUCAAAAGAAAUAGUCUUGCGCUCAACCAGAAAGUCUGUAAGUAUUUUAAGGGUA [U37C U127G C128U],1.68
4,GUUAACGGUCAUAGGCCAUGGAAACUAGGAGCACCACUUCGCUGCCAGUGAAGAAAUGAACAAAGAAAAACUGGCCCAGGCAGGCAUCAAAAGAAAUAGUCUUGCGCUCAACCAGAAAGUCUGUAAUCAUUUUAAGGGUA [U37C U70A G75C],0.2
5,GUUAACGGUCAUAGGCCAUGGAAACUAGGAGCACCAGUUCGCUGCCAGUGAAGAAGUGAACAAAGAAAAUCUGGGCCAGGCAGGCAUCAAAAGAAAUAGUCUUGCGCUCAACCAGAAAGUCUGAAAUCAUUUUAAGGGUA [U37G A56G U124A],0.65
6,GUUAACGGUCAUAGGCCAUGGAAACUAGGAGCACCACUUCGCUGCCAGUGAAGAAAUGAACAAAGAAAAUCUGGGCCAGGCAGGCACCAAAAGAAAUAGUCUUGCGCUCAACCAGAAGGUCUGUAAUCAUUUUAAGGGUA [U37C U87C A118G],1.04
7,GUUAACGGUCAUAGGCCAUGGAAACUAGGAGCACCAGUUCGCUGCCAGUGUGGAAAUGAACAAAGAAAAUUUGGGCCAGGCAGGCAUCAAAAGAAAUAGUCUUGCGCUCAACCAGAAAGUCUGUGAUCAUUUUAAGGGUA [U37G A51U A52G C71U A125G],0.13
8,GUUAACGGUCAUAGGCCAUGGAAACUAGGAGCACCAGUUCUCUGCCAGUGAAGAAAUGAACAAAGAAAAUCUGGGCCAGGCAGGCAUCAAAAGAAAUAGUCUUGCGCUCUACCAGAAAGUCUGUAAUCAUUUUAAGGGUA [U37G G41U A110U],2.64
9,GUUAACGGUCAUAGGCCAUGGAAACUAGGAGCACCACUUCGCUGCCAGCGAAGAAAUGAACAAAGUAAAUCUGGGCCAGGCAGGCAUCAAAAGAAAUAGUCUUGCGCUCAACCAGAAAGUCUGUAAUCAUUUUAAGGGUA [U37C U49C A66U],1.86
10,GUUAACGGUCAUAGGCCAUGGAAACUAGGAGCACCAGUUCGCUGCCAGUGAAGAAGUGAACAAAGAAAAUCUGGGCCAGGCAGGCAUCAAAAGAAAUAGUCUUGCGCUCAACCAGAAUGUCUGCAAUCAUUUUAAGGGUA [U37G A56G A118U U124C],0.35
11,GUUAACGGUCAUAGGCCAUGGAAACUAGGAGCACCACUUCGCUGCCAGUGAAGAAACGUACAAAGAAAAUCUGGGCCAGGCAGGCAUCAAAAGAAAUAGUCUUGCGCUCAACCAGAAAGUCUGUAAUCAUUUUAAGGGUA [U37C U57C A59U],1.17
12,GUUAACGGUCAUAGGCCAUGGAAACUAGGAGCACCACUUCGCUGCCAGUGAAGAAAUGAACAAAGAAAAUCUGGGCCAGGCAGGCAUCAAAAGAAAUAGUCUUGCGCCCAACCAGAAAGUCCGUAAUCAUUUUAAGGGUA [U37C U108C U122C],0.01
13,GUUAACGGUCAUAGGCCAUGGAAACUAGGAGCACCAGUUCGCUGCCAGUGAAGAAAUGAACAAGGAAAAUCUGGGCCAGGCAGGCAUCAAAAGAAAUAGUCCUGCGCUCAACCAGAAAGUCUGUAAUCAUUUUAAGGGUA [U37G A64G U102C],2.05
14,GUUAACGGUCAUAGGCCAUGGAAACUAGGAGCACCAGUUCGCUGCCAGUGAGGAAAUGAGCAAAGAAAAUCUGGGCCAGGCAGGCAUCAAAAGAAAUAGUCUUGCGCUCAACCAGAAAGUCUGUAAUCAUUUUAAGGGUA [U37G A52G A60G],1.19
15,GUUAACGGUCAUAGGCCAUGGAAACUAGGAGCACCACUUCGCUGCCAGUGAAGAAAUGAACAAAGAAAACCUGGGCCAGGCAGGCAUCAAAAGAAAUAGUCUUGCGCUCAACCAGAAAGUCUGUAACCAUUUUAAGGGUA [U37C U70C U127C],0.2
16,GUUAACGGUCAUAGGCCAUGGAAACUAGGAGCACCACUUCGCUGCCAGUGAAGAAAUGAACAAAGAAAAUCUGGGCCAGGCAGGCAUCAAAAGAAACAGCCUUGCGCUCAACCAGAAAGUCUGUAAUCAUUUUAAGGGUA [U37C U97C U100C],2.51
17,GUUAACGGUCAUAGGCCAUGGAAACUAGGAGCACCACUUCGCUGCCAGUGAAGAAAUGAACAAAGAAAAUCUGGGCCAGGCAGGCAUCAAAAGAAAUAGUCAUGCGCUCAACCAGAAAGUCUGUAAUCACUUUAAGGGUA [U37C U102A U130C],1.23
18,GUUAACGGUCAUAGGCCAUGGAAACUAGGAGCACCAGUUCGCUGCCAGUGAAGAAAUGAACAAAGAAAAUCUGGGCCAGGCAGGCACCAAAAGAAGUAGUCUUGCGCUCAACCAGAAAGUCUGUAAUCAUUUUAAGGGUA [U37G U87C A96G],2.95
19,GUUAACGGUCAUAGGCCAUGGAAACUAGGAGCACCAUAUCGCUGCCAGUGAGGAAAUGAACAAAGAAAAUCUGGGCCAGGCAGGCAUCAAAGGAAAUAGUCUUGCGCUCAACCAGAAAGUCUGUAAUCAUUUUAAGGGUA [U38A A52G A92G],1.19
20,GUUAACGGUCAUAGGCCAUGGAAACUAGGAGCACCACUUCGCUGCCAGUGAAGAAAUGAACAAAGAAAAUCUGGGCCAGGCAGGCAUCAAAAGAAAUAGCCUUGCGCUCAACCAGAAAGUCUGAAAUCAUUUUAAGGGUA [U37C U100C U124A],1.12
